Test results reported in PubChem BioAssay AID1346428 (National Center for Advancing Translational Sciences (NCATS), 2018).
“And” between values parts separate entries of the source, which are not always exact repeats. Equal entries are not always repeated. The whole screen tested about 48,000 compounds, of which about 1,200 (2.5%) were called active. About 2% were inconclusive and are not listed.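 Rule for the calls: active = activation of at least 60% and not above a set upper limit (about 1 call in 100 departs from these limits); inconclusive = activation of 40% to 60%, or above that upper limit; inactive = activation under 40%.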 The list shows a part of the results.

These molecules were tested against Probable G-protein coupled receptor 32 (Homo sapiens) (UniProt O75388) (assay: qHTS for Agonists of Human Resolvin D1 Receptor DRV1). Settings: CHO-K1 GPR32 beta-arrestin PathHunter luminescence, 90 min; at 76.9 µM; active compounds read high; zero percent set by DMSO-only wells.
Sequence of UniProt O75388 (O75388 whole entry, looked up): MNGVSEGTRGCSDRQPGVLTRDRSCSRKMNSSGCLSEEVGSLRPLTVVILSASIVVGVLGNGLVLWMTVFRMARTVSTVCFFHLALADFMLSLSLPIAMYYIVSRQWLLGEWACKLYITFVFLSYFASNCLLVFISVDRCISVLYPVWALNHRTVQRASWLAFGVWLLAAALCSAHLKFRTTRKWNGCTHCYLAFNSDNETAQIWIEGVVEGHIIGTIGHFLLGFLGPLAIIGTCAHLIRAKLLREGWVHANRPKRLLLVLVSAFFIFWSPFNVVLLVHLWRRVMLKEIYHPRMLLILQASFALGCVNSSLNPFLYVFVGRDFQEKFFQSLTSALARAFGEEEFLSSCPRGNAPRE
In short: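 CHO-K1 cells stably expressing ProLink-tagged GPR32 and Enzyme Activator-tagged beta-arrestin were seeded at 2,500 cells/well overnight, exposed to compounds for 90 min at 37 °C, then read by beta-Gal complementation chemiluminescence after 1 h detection reagent.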
Note: 0% is about no effect.

activation, inactive:
Cc1ccc(NC(=O)CN(C)S(=O)(=O)c2ccc3c(c2)CCC(=O)N3)c(C)c1 12.4%
COc1ccccc1C(=O)c1c(N)c(-c2nc(-c3ccccc3)cs2)c2ccccn12 -32.4%
CCCCN(CC)C(=O)CCn1c(=O)c2cccn2c2cccnc21 -13.1%
COc1ccccc1-c1noc(-c2ccc(N(C)Cc3ccccc3)c([N+](=O)[O-])c2)n1 1.5%
Cc1ccc(NC(=O)Cn2nc(-c3ccc(F)cc3)c3cnc4ccc(C)cc4c32)cc1 9.56%
CCCN1CCN(c2ncc3c(n2)CCN(Cc2ccc(OC)c(OC)c2OC)C3)CC1 -9.58%
CC(=O)c1cccc(N(C(=O)Cn2nnc3ccccc32)C(C(=O)NCc2ccccc2)c2ccc(F)cc2)c1 (centres undefined) -19.5%
CCCCNC(=O)CN1C(=O)CSc2ccc(S(=O)(=O)N3CCC(C)CC3)cc21 9.2%
COc1cc(NS(=O)(=O)c2ccc(N)cc2)nc(C)n1 9.18%
Cc1ccc(Cl)cc1N1CCN(C(=O)c2cccn2-c2nnc(N3CCCCC3)s2)CC1 -7.93%
Fc1cccc(Cl)c1CNc1n[nH]c(-c2ccco2)n1 8.13%
CC(C)CCNC(=O)c1ccc(Cn2c(SCC(=O)NC(C)C)nc3ccccc3c2=O)cc1 -27.5%
COc1cc(Cl)ccc1OC(=O)c1cn(-c2ccccc2OC)c(=O)c2ccccc12 12.5%
CC1C(=O)Nc2ccc(S(=O)(=O)Nc3ccccc3Br)cc2NC1=O (centres undefined) 0.581%
Cc1ccc2nc(Cl)c3cc(C(=O)NCCCN4CCC(C)CC4)sc3c2c1 -0.0005%
Cc1c(-c2ccccc2)c(=O)oc2c(CN3CCN(C)CC3)c(O)ccc12 12.7%
Cc1cc(NC(=O)c2ccc(-c3ccc(Br)cc3)o2)cc(-c2nc3ncccc3o2)c1O 26.7%
COc1ccc(N2CC(NC(=O)c3ccc4c(c3)OCO4)CC2=O)cc1OC (centres undefined) 19.9%
CCc1ccc(-n2c(SCC(=O)NC(C)CC)nc3n[nH]c(C)c3c2=N)cc1 (centres undefined) -16.2%
COc1ccc2c(c1)c1c(c(=O)n(-c3ccccc3)c(=O)n1CC(=O)Nc1ccc(F)cc1)n2C 15.5%
Cc1ccc(C)c(S(=O)(=O)c2nnn3c2nc(NCc2cccs2)c2sccc23)c1 -18%
N#C/C(=C\c1ccc(O)c(O)c1)C(=O)c1ccc(O)c(O)c1 -26.6%
COc1ccc(NC(=O)Cc2csc(COc3cccc(C)c3)n2)cc1OC 42.9%
CCc1cc2c(cc3c(=O)n(CC(=O)N4CCCCC4)nc(CC)n32)s1 1.61%
COc1ccc(CNC(=O)Cn2nnc(-c3ccccc3F)n2)cc1 -0.303%
Cc1ccc(-c2nc(S(=O)(=O)c3ccc(Cl)cc3)c(N3CCCCC3)o2)cc1 -5.36%
CCCCN(C)CC(O)Cn1cc(/C=C/C(=O)c2ccc(OC)c(OC)c2)c2ccccc21 (centres undefined) 38.2%
COc1ccc(Cl)cc1C(=O)Nc1ccc2oc(-c3ccc(C(C)(C)C)cc3)nc2c1 24.1%
CC(C)(C)C(=O)NCCCC(=O)O 9.72%
CCCSC1=NC2(CCN(C(=O)NC3CCCCC3)CC2)N=C1c1ccccc1 -9.57%
CCCSc1ncc(Cl)c(C(=O)Nc2sc3c(c2C(=O)NCC)CCCC3)n1 -11.8%
NC12CC3CC(CC(C3)C1)C2 -4.06% and -0.386%
CN1CCN(C2=Nc3cc(Cl)ccc3Nc3ccccc32)CC1 15.1% and -9.67%
Cc1ccc(C)c(NS(=O)(=O)c2ccc3c(c2)n(C)c(=O)n3C)c1 7.13%
COc1ccc(-c2noc(Cn3c(=O)c4ccccc4n(CC(=O)Nc4cccc(C(F)(F)F)c4)c3=O)n2)cc1 -8.81%
CC(C)NC(=O)N1CCC(N2CCN(Cc3ccc(F)cc3)C(=O)C2=O)CC1 -9.75%
CCOc1ccc(N(CC)S(=O)(=O)N2CCCC(C(=O)NCc3ccc(Cl)cc3)C2)cc1 (centres undefined) -28.3%
CCn1c(SCC(=O)N2CCC(C)CC2)nnc1-c1ccccc1O 1.42%
O=S(=O)(Nc1cccc(-c2ccc(N3CCCCCC3)nn2)c1)c1ccccc1 -8.97%
Cc1ccccc1-c1nc(CS(=O)(=O)CC(=O)Nc2cccc(C(F)(F)F)c2)c(C)o1 35.8%
Cc1ccc(S(=O)(=O)NCCc2sc3nc(-c4ccccc4)nn3c2C)cc1C -14.3%
COc1ccc2c(c1)c1c(c(=O)n(Cc3ccccc3)c(=O)n1CC(=O)Nc1c(C)cccc1C)n2C 1.57%
O=C(c1cccc(Cl)c1)N(Cc1ccco1)Cc1ccccc1Cl -32.6%
CCc1nc2onc(C)c2c(=O)n1CC(=O)O 5.86%
Cc1oc(-c2cccc(Br)c2)nc1Cn1c(=O)cc(-c2ccccc2)c2c(C)nn(C)c21 -3.94%
CCCOc1ccc(Nc2cc(C)nc(C)n2)cc1 -24.6%
O=C(Cn1c(=O)n(-c2ccc(F)cc2)c(=O)c2sc3ccccc3c21)NC1CCCCC1 -0.922%
CCOC(=O)c1ccc2c(c1)N(Cc1cccc(C(F)(F)F)c1)C(=O)c1ccccc1S2(=O)=O -1.58%
COc1ccccc1NC(=O)C1=C(C)Nc2nc3ccccc3n2C1c1cccc(Br)c1 (centres undefined) -22.1%
COc1ccc(N2CCN(Cc3cc(=O)oc4ccc(OC)cc34)CC2)cc1 -16.5%
CCc1ccccc1Nc1cc(C(=O)NCCc2ccccc2)c2ccccc2n1 -15.1%
Cc1ccc(CNC(=O)CCC(=O)N2Cc3ccccc3Oc3ncccc32)cc1 -14.2%

activation, active:
CCCn1ccc2c(OCC(=O)NCc3ccc(F)cc3)cccc2c1=O 76.6%
O=C(Cc1ccc(F)cc1)NCCc1csc(-c2cccc(F)c2)n1 103%
